This experiment concerns Escherichia coli. Kind of experiment: Growth of E. coli transformant on minimal medium plates containing PPT. The conditions noted are these: minimal medium plates containing 300 μg/ml PPT.

Consider `CP(=O)(O)CCC(N)C(=O)O` (stereo not shown) [PPT, phosphinothricin], for which the “growth of transformant (pJS1) on PPT-containing medium” value is “grew”.

Values taken from USRE44962E1, “Genetically engineered plant cells and plants exhibiting resistance to glutamine synthetase inhibitors, DNA fragments and recombinants for use in the production of said cells and plants” (Bayer Cropscience N.V., priority 1986, dated 2014).
